Each structure is given as a SMILES string. The campaign covered roughly 150,000 compounds. About 540 (0.36%) showed an effect of 50% or more. The list shows a part of the results.

The experiment deals with Plasmodium falciparum. Put plainly: Primary screen in NF54 nanoGlo assay, in single point, at 2uM, 72h; a lower Z score goes with more inhibition. The experiment is classed as functional, Erythrocyte. To be noted: timepoint 72 hour.
Turning to `CC(=O)C[C@H]1COCCN1C(=O)Cn1c(=O)cnc2ccccc21`, the “% Inhibition” value is on record as -8% and the Z score is 1.14.
For `COCCN1CC[C@H](CN(C)S(=O)(=O)c2ccc(C(C)C)cc2)C1`, in that order: -3% and 0.64.
Regarding `CC[C@H](C)N(Cc1ccsc1)Cc1cc(C#CCO)cs1`, the “% Inhibition” value is listed as -8% and the Z score turned out to be 1.08.
For `Cc1ccc(S(=O)(=O)N2CCC[C@H](C3OCCO3)C2)c(Cl)c1`, in that order: -14% and 2.66.
`O=C1CC(C(=O)N2CCCC2c2ccncc2)CN1C1CCCC1` (centres undefined): the “% Inhibition” value is -2% and the Z score was 0.14.
For `CCc1ccc(-c2cc3c(=O)n(CC(=O)NCCN4CCCC4)nc(C)n3n2)cc1`, in that order: 0% and -0.06.
For `Cc1ccccc1-c1ncc(CN2CCC[C@H](c3nnc(CO)n3C)C2)s1`, in that order: -11% and 2.05.
For `CO[C@@]1(C(=O)NCC2(CO)CC3(CCC3)C2)CCOC1`, the “% Inhibition” value is recorded as 0% and the Z score turned out to be 0.06.
Consider `CCc1ccc(CN(C)C(=O)CN2CCC[C@H]2c2ccc3c(c2)OCCCO3)cc1`, for which the “% Inhibition” value came out at 2% and the Z score was -0.31.
For `Cc1cc(C(=O)N(CCN2CCOCC2)c2nc3c(C)c(C)ccc3s2)on1`, in that order: -7% and 1.06.
Regarding `Cc1c(-c2ccnc3cc(C(=O)Nc4cccc(F)c4)nn23)cnn1C`, the “% Inhibition” value was 1% and the Z score is -0.16.
Take `Cc1ncc(S(=O)(=O)N2CCC(N3CCc4cc(F)ccc43)CC2)s1`: the “% Inhibition” value is listed as -11% and the Z score is 1.75.
For `O=C(Nc1nncs1)[C@H]1CCCN(C(=O)C2(c3cccc(Cl)c3)CCC2)C1`, in that order: -5% and 0.88.
For `COc1ccc(C)cc1NC(=O)CNC(=O)CN1CCN(S(=O)(=O)c2ccc(C(C)=O)cc2)CC1`, in that order: -3% and 0.56.
`Cc1ccc(-n2ccc(=O)c(C(=O)Nc3c(C(=O)c4ccc(Cl)cc4)oc4ccccc34)n2)cc1`: the “% Inhibition” value is recorded as -15% and the Z score is on record as 2.69.
`Cc1nc(C(C)C)sc1CNC(=O)[C@H]1C[C@H]2C=C[C@@H]1C2`: the “% Inhibition” value is on record as -28% and the Z score amounted to 2.51.
For `O=C(c1cnc(-c2cccnc2)nc1O)N(CCO)Cc1ccccc1Cl`, in that order: -13% and 1.71.
For `O=C(C1CCCCCC1)N1CCC(n2cc(C3CCCC3)nn2)CC1`, in that order: -6% and 1.16.
For `CN(C)CC(=O)N1CC2(CCCCC2)C[C@@H]1COCc1ccccc1`, in that order: 2% and -0.39.
With `Cc1cc(NS(=O)(=O)c2ccc(OCc3ncnn3C)cc2)n(C)n1`, the “% Inhibition” value came to 4% and the Z score was -0.52.
Turning to `O=C(Nc1cccc2cccnc12)c1ccccn1`, the “% Inhibition” value worked out at 79% and the Z score is given as -8.04.
With `O=C(c1c[nH]c2c1ccc1ccccc12)C(F)(F)F`, the “% Inhibition” value is given as -12% and the Z score is recorded as 2.21.
In the case of `Cc1nccn1-c1ncc(NC(=O)Nc2ccccc2)cn1`, the “% Inhibition” value is recorded as 22% and the Z score is listed as -0.58.
Consider `C[C@](O)(CNC(=O)c1ccc(Br)o1)c1ccc2c(c1)OCO2`, for which the “% Inhibition” value is on record as -10% and the Z score came out at 1.71.
Consider `CCC(CC)c1cc(C(=O)N2CCN(Cc3c(C)nc4cc(C)ccn34)CC2)on1`, for which the “% Inhibition” value amounted to 2% and the Z score was -0.27.
Take `Cn1ncnc1CCNc1nc2c(c(=O)[nH]1)Cc1ccccc1OC2`: the “% Inhibition” value is on record as -3% and the Z score was 0.62.
For `Cc1cc(C(NC(=O)NC2CCS(=O)(=O)C2)C(C)C)c(C)s1` (centres undefined), in that order: -13% and 2.45.
Consider `COCc1nc(-c2ccc3[nH]c(C)c(C)c3c2)n(CC(C)(C)O)n1`, for which the “% Inhibition” value is listed as -20% and the Z score was determined as 1.8.
Turning to `CN(C)C(=O)N1CCC(c2nnc3n2CCN(C(=O)NCc2cccc(F)c2)C3)CC1`, the “% Inhibition” value amounted to 7% and the Z score is recorded as -1.12.
With `CCc1ccc(CNC(=O)[C@H]2CCn3c(nc4ccccc43)C2)cc1`, the “% Inhibition” value was -2% and the Z score is recorded as 0.37.
For the compound `Cc1nn(-c2ccc3nncn3n2)c2c1[C@@H](c1ccc(F)c(F)c1F)CC(O)=N2`, the “% Inhibition” value was found to be 19% and the Z score is given as -2.38.
For `O=C(NC1CC1)c1nnc(N2CCCCC2)c2ccccc12`, in that order: -13% and 1.22.
For `CCCCn1nc(-c2c[nH]c3ccccc23)nc1C1(O)CCN(C)CC1`, in that order: -1% and 0.13.
Turning to `Cc1cccc(OCC(=O)N2CC(N(CCN3CCOCC3)S(C)(=O)=O)C2)c1`, the “% Inhibition” value is -6% and the Z score is 0.77.
For `CN(C(=O)[C@@H]1CCCO1)c1ncccc1F`, in that order: 4% and -0.51.
Consider `Cc1oc(C)c(C(=O)Nc2nc(-c3cccc(-n4cnnn4)c3)cs2)c1Cl`, for which the “% Inhibition” value is -7% and the Z score stood at 1.15.
For `CCN1CCN(C[C@H]2COc3ccccc3O2)CC1`, in that order: -1% and 0.13.
Turning to `Cc1cc(C)nc(O[C@H]2CCN(C(=O)COc3ccccc3F)C2)n1`, the “% Inhibition” value is -15% and the Z score was determined as 2.32.
For `COc1ccc(CCN2C[C@H](O)C(C)(C)COCCC[C@H]3CN(Cc4c(C)noc4C)CC[C@H]3CC2=O)cc1`, in that order: -13% and 1.88.
`Cc1cc(C)c(S(=O)(=O)N2CCCC(C(=O)N[C@@H]3CCCC[C@H]3NC(=O)c3ccccc3C)C2)c(C)c1` (some centres undefined): the “% Inhibition” value is reported as -15% and the Z score was determined as 2.
For `CN1CCCCC(CNC(=O)NC2CCC(OC(F)F)C2)C1` (centres undefined), in that order: -12% and 2.19.
For `CCCNCc1ccc(Cl)cc1Cl`, in that order: -3% and 0.39.
For `Cc1cccc(NC(=O)NCC(F)F)c1Br`, in that order: -7% and 1.04.
Consider `O=C(CN(C(=O)c1ccccc1F)C1CC1)N(CCc1c[nH]c2ccccc12)Cc1ccc(Cl)cc1`, for which the “% Inhibition” value is 1% and the Z score is on record as -0.22.
As for `Cc1ccc(C(=O)N2C[C@@H]3CN(CC4CCC4)C[C@]3(C(=O)O)C2)cc1`, the “% Inhibition” value is reported as -5% and the Z score is on record as 0.48.
For `Cc1cc(C)n(CC(=O)OCC(=O)NC(=O)NC(C)C2CC3CCC2C3)n1` (centres undefined), in that order: 0% and 0.05.
`CCOc1c(Br)cc(CNc2ccc(N3CCN(C(C)=O)CC3)cc2)cc1OC`: the “% Inhibition” value was -17% and the Z score is recorded as 2.12.
For `O=C1CCC(C(=O)NC(c2ccccc2)C2CCOC2)N1` (centres undefined), in that order: 1% and -0.27.
On to `CC(C)C(=O)N(Cc1cc(NC(=O)NC(C)(C)C)ccc1N(C)C)[C@@H](C)C(C)C`, for which the “% Inhibition” value is -1% and the Z score came out at 0.12.
For `COc1cccc([C@H]2CN(C(=O)c3ccc(C)c(F)c3F)C[C@@H]2N)c1`, in that order: 2% and -0.21.
`Cc1cc(Br)cnc1-c1noc([C@@](C)(O)C2CC2)n1`: the “% Inhibition” value was -3% and the Z score was found to be 0.36.
As to `C[C@@H](C(=O)OCc1ccccc1)S(N)(=O)=O`, the “% Inhibition” value was -8% and the Z score is 1.44.
On to `O=C(CNc1ccc(F)cc1)N(Cc1ccncc1)C1CC1`, for which the “% Inhibition” value is recorded as -19% and the Z score is on record as 1.78.
For `CCn1cnnc1CCNc1cc(C)c2cc(OC)cc(OC)c2n1`, in that order: -20% and 2.75.
For `O=C(NCCCC(=O)N1Cc2ccccc2C1)NCC1CCC1`, in that order: -13% and 2.6.
Turning to `COc1ccc(-c2ccc(N3CCN(C(=O)CN(CCC(C)C)C(=O)Nc4ccc(C)cc4)CC3)nn2)c(OC)c1`, the “% Inhibition” value is on record as 9% and the Z score is reported as -1.13.
Take `CCCCC1(CCCC)C(=N)N(C)C(=O)N(C)C1=O`: the “% Inhibition” value is reported as -19% and the Z score is 2.51.
For `CN(CC1CCOCC1)c1nccnc1N(C)CC1CCOCC1`, in that order: -10% and 2.
Consider `COc1cccc(CNC(=O)c2cc3n(n2)CCCN(Cc2ccc(Cl)cc2)C3=O)c1`, for which the “% Inhibition” value is given as -14% and the Z score came to 2.41.
For `O=C(NCCOCc1ccccc1)[C@@H]1COc2ccccc21`, in that order: 0% and -0.07.
For `Cc1noc(C)c1N(C)C(=O)c1cccc(Br)c1C`, in that order: 3% and -0.56.
For `CC(C)Oc1ccc(C(=O)N2C3CCC2CC(n2nccn2)C3)cc1` (centres undefined), in that order: -3% and 0.58.
For `O=C1NC2(CCCCC2)NC2=C1CCCC2`, the “% Inhibition” value was found to be 7% and the Z score is given as -0.93.
For `Cc1ccc(F)c(C(=O)N2CCC(CO)(CN3CCCC3)CC2)c1F`, in that order: -2% and 0.28.
For `O=C(CN1CCC(NC(=O)N2CC(Oc3ccc(F)cc3)C2)CC1)NC1CC1`, in that order: 8% and -1.21.
For `Cc1ncc(C(=O)NCc2ccc3[nH]c(-c4ccccc4F)c(C)c3c2)cn1`, in that order: -5% and 0.61.
For `Cc1nn(C)c2nc(-c3ccccn3)nc(N3CCO[C@@H](CN)C3)c12`, the “% Inhibition” value was 0% and the Z score is recorded as 0.02.
For `C[C@]1(O)CCN(C(=O)CCc2cn3ccccc3n2)C[C@@H]1O`, in that order: -5% and 0.97.
As for `CC(C)(C)OC(=O)N1CC[C@@]2(C1)NC(=O)N(Cc1cc(-c3cccs3)on1)C2=O`, the “% Inhibition” value is recorded as 17% and the Z score is listed as -1.97.
For `Cc1csc(CNc2nnc(C(C)C)o2)n1`, in that order: 7% and -0.84.
`C=C(C(=O)N1CCN(C2CC2)C(=O)C1)c1ccc(Cl)cc1`: the “% Inhibition” value is -14% and the Z score was found to be 1.51.
For `CCn1nc2n(c1=O)CCN(C(=O)c1nccn1C)[C@@H]2c1ccccc1`, in that order: -7% and 1.02.
For `Cc1ccc([C@@H](O)CNC(=O)C(C)(C)S(=O)(=O)C2CC2)cc1`, in that order: -4% and 0.6.
For `Cc1nnccc1NC(=O)NCc1cccc2c1OCC2`, in that order: 2% and -0.35.
`Cc1ccc(C)c(N2CCN(C(=O)CCc3ccccc3)[C@@H](C)C2=O)c1`: the “% Inhibition” value was 4% and the Z score is -0.62.
`CC(C)C[C@H]1CN(C)CCN1C(=O)CCc1cn(C)nn1`: the “% Inhibition” value is listed as -3% and the Z score was 0.44.
For the compound `CCN1CCN(C(=O)C[C@H](c2ccc(C(F)(F)F)cc2)c2cn(Cc3ccccc3)c3ccccc23)CC1`, the “% Inhibition” value was 0% and the Z score was -0.01.
Regarding `O=C([C@@H]1COCC(=O)N1Cc1ccccc1)N1CCC(Cc2ccccc2)CC1`, the “% Inhibition” value is -7% and the Z score is 1.37.
With `O=S(=O)(CCC1CCOCC1)N1CC2(CC2)C1`, the “% Inhibition” value is recorded as -10% and the Z score was found to be 1.86.
Turning to `CN1C[C@@H](NC(=O)c2ccnn2C2CCC2)Cc2ccccc21`, the “% Inhibition” value is given as -1% and the Z score is 0.12.
With `O=C(Nc1ccc(Cl)cc1)n1c(=S)oc2cc(Br)ccc21`, the “% Inhibition” value was found to be 34% and the Z score is on record as -4.34.
On to `COCCC1(CNC(=O)c2cccnc2O[C@@H](C)C(F)(F)F)CCCC1`, for which the “% Inhibition” value was -10% and the Z score is reported as 1.44.

These data come from ChEMBL document CHEMBL4888484, “Replenishing the malaria drug discovery pipeline: Screening and hit evaluation of the MMV Hit Generation Library 1 (HGL1) against asexual blood stage Plasmodium falciparum ,using a nano luciferase reporter read-out” (2022).
